Measured values reported in publication PMC3521654, “The Nuclear Chaperone Nucleophosmin Escorts an Epstein-Barr Virus Nuclear Antigen to Establish Transcriptional Cascades for Latent Infection in Human B Cells” (PLoS Pathogens, 2012).
No constants are given. Whether binding was seen depends on the method and setting. Binding seen in cells or lysates may run through a third protein. Some binding calls cover weakened binding; strength is not graded here.

Chains of the proteins cited; added tags and fusions are not shown. Lines headed by an entry give the natural chain unless they say otherwise; changes in a name come on top. A line that says so, or that is headed by a name, gives the form on record, which may keep a tag or linker.
UniProt P06748: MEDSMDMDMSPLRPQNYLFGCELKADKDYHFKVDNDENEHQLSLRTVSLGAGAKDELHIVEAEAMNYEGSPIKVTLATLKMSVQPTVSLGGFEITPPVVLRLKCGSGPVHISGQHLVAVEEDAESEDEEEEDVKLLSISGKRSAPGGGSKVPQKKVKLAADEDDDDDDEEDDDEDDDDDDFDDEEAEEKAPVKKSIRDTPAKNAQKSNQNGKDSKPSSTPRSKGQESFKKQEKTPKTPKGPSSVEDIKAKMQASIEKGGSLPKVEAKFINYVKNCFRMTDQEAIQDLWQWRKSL
flag-tagged NPM1 ATP-binding mutant K_(257/263)R (P06748, form named): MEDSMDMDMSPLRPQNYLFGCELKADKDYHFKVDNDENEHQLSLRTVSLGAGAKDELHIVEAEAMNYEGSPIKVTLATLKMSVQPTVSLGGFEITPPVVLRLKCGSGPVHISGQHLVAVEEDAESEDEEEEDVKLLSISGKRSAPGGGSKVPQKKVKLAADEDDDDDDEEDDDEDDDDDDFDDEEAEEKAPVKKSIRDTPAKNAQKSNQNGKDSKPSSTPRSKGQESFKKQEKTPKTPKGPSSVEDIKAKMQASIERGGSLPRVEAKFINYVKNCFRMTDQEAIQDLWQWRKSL
UniProt Q06330: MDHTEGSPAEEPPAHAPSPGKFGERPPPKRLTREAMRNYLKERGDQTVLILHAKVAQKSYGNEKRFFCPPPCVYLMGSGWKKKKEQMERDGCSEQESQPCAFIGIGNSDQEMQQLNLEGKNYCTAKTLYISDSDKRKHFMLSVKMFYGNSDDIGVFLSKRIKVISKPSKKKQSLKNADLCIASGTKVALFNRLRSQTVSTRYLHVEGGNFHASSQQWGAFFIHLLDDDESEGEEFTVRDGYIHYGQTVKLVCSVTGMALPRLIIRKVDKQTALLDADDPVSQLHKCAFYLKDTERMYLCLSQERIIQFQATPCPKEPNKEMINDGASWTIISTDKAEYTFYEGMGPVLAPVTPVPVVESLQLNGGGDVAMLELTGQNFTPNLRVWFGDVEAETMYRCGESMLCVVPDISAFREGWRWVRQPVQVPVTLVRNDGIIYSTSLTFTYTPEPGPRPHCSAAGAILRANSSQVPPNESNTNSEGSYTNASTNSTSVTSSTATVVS

Legend:
[1] = target: GST-E2 300–360 (Epstein-Barr virus) (UniProt P12978); assay: pull-down; only the target purified
[2] = target: GST-E2 300–360 (Epstein-Barr virus) (UniProt P12978); assay: pull-down; GST-E2 300–360 as bait, lysates of BJAB cells (10^7) transfected with 30 µg of flag-tagged NPM1 vectors, 24 hours after transfection; immunoblot with M2 antibody; only the target purified
[3] = target: EBNA2 from the transfected expression vector (pSG5-EBNA2, E2) (Epstein-Barr virus) (UniProt P12978); assay: co-IP; cells co-transfected with EBNA2 and FNPM1 or ATP-binding mutants (methods: 293T, 3 µg each); Western blot; which protein was precipitated is not told
[4] = target: flag-tagged wild type NPM1 (FNPM1) (UniProt P06748); assay: co-IP
[5] = target: GST-E2 300–335 (Epstein-Barr virus) (UniProt P12978); assay: pull-down; only the target purified
[6] = target: GST-E2 360–432 (Epstein-Barr virus) (UniProt P12978); assay: pull-down; only the target purified
[7] = target: GST-E2 335–360 (Epstein-Barr virus) (UniProt P12978); assay: pull-down; only the target purified
[8] = target: GST-E2 300–432 (Epstein-Barr virus) (UniProt P12978); assay: pull-down; only the target purified
[9] = target: RBP-Jκ, endogenous (human (endogenous in BJAB-E2, BJAB and IB4)) (UniProt Q06330); assay: co-IP

## flag-tagged NPM1 truncated deletion mutant N1 (120–294) (from UniProt P06748 120-294) (domain or fragment)
[1]
  binding: no binding

## flag-tagged NPM1 point mutant S106A (from UniProt P06748 1-294)
[2]
  binding: no binding

## flag-tagged NPM1 point mutant G105A (from UniProt P06748 1-294)
[2]
  binding: no binding

## flag-tagged NPM1 ATP-binding mutant K_(257/263)R (from UniProt P06748 1-294)
[3]
  binding: no binding

## flag-tagged NPM1 point mutant L102A (from UniProt P06748 1-294)
[2]
  binding: no binding

## RBP-Jκ, endogenous (from UniProt Q06330 1-500)
[4]
  binding: binds

## flag-tagged NPM1 truncated deletion mutant N2 (194–294) (from UniProt P06748 194-294) (domain or fragment)
[1]
  binding: no binding

## nucleophosmin (NPM1), endogenous (from UniProt P06748 1-294)
[5]
  binding: no binding
[6]
  binding: no binding
[7]
  binding: no binding
[8]
  binding: binds
[9]
  binding: binds

## flag-tagged NPM1 ATP-binding mutant K263R (from UniProt P06748 1-294)
[3]
  binding: no binding

## flag-tagged wild type NPM1 (FNPM1) (from UniProt P06748 1-294)
[3]
  binding: binds
